Experimental data from PMC6794377.
These are yes or no findings as the source states them, for the method shown. Some entries that bind do so weakly or less than the wild type.

Experiments:
[1] = biological target: T1, native mouse ThrRS-L (mThrRS-L) (mouse (endogenous in muscle tissue and NIH/3T3)) (UniProt Q8BLY2); test: SEC; mouse muscle tissue extract on Superose-6, 50 mM Tris-HCl pH 7.5, 50 mM NaCl, 1 mM PMSF, 1 mM DTT; fractions immunoblotted
T1 sequence: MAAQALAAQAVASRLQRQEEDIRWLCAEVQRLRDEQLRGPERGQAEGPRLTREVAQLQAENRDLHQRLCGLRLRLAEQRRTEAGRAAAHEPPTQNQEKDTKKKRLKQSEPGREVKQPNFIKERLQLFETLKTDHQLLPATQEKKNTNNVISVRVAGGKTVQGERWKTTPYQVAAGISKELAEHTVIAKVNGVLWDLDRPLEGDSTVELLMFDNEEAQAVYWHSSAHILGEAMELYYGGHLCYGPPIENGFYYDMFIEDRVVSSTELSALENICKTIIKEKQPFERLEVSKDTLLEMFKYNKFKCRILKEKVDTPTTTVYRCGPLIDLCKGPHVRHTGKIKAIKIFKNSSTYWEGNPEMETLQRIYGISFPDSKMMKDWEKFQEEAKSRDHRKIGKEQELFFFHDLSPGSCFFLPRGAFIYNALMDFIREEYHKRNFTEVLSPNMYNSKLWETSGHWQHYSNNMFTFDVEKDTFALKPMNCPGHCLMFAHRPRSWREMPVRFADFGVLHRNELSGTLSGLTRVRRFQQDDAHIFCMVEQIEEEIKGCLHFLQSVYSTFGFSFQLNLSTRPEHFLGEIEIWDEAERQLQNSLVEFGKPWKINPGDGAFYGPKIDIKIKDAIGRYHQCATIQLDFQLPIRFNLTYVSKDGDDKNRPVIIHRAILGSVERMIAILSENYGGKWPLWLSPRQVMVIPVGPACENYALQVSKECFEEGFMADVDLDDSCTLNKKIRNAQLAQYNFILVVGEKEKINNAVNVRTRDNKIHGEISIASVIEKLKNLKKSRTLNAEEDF

[2] = biological target: T1, native mouse ThrRS-L (mThrRS-L) (mouse (endogenous in muscle tissue and NIH/3T3)); test: SEC; NIH/3T3 whole cell lysate on Superose-6, 50 mM Tris-HCl pH 7.5, 50 mM NaCl, 1 mM PMSF, 1 mM DTT; fractions immunoblotted

binding [1]: binds
binding [2]: binds
B1: mouse p43, endogenous (protein, UniProt P31230 1-310)
chain: MATNDAVLKRLEQKGAEADQIIEYLKQQVALLKEKAILQATMREEKKLRVENAKLKKEIEELKQELILAEIHNGVEQVRVRLSTPLQTNCTASESVVQSPSVATTASPATKEQIKAGEEKKVKEKTEKKGEKKEKQQSAAASTDSKPIDASRLDLRIGCIVTAKKHPDADSLYVEEVDVGEAAPRTVVSGLVNHVPLEQMQNRMVVLLCNLKPAKMRGVLSQAMVMCASSPEKVEILAPPNGSVPGDRITFDAFPGEPDKELNPKKKIWEQIQPDLHTNAECVATYKGAPFEVKGKGVCRAQTMANSGIK
